# Publication PMC4336329 (PLoS ONE, 2015)
# The whole screen tested about 310,000 compounds, of which about 2,200 (0.71%) showed an effect of 50% or more. The effect is printed as a negative number. This is one part of the list.
# Molecular target: human ether-à-go-go-related gene (hERG) potassium channel (human, UniProt Q12809)
# Test: primary screen, population patch clamp on CHO cells stably expressing hERG
# Sequence of human ether-à-go-go-related gene (hERG) potassium channel (Q12809 whole entry, looked up): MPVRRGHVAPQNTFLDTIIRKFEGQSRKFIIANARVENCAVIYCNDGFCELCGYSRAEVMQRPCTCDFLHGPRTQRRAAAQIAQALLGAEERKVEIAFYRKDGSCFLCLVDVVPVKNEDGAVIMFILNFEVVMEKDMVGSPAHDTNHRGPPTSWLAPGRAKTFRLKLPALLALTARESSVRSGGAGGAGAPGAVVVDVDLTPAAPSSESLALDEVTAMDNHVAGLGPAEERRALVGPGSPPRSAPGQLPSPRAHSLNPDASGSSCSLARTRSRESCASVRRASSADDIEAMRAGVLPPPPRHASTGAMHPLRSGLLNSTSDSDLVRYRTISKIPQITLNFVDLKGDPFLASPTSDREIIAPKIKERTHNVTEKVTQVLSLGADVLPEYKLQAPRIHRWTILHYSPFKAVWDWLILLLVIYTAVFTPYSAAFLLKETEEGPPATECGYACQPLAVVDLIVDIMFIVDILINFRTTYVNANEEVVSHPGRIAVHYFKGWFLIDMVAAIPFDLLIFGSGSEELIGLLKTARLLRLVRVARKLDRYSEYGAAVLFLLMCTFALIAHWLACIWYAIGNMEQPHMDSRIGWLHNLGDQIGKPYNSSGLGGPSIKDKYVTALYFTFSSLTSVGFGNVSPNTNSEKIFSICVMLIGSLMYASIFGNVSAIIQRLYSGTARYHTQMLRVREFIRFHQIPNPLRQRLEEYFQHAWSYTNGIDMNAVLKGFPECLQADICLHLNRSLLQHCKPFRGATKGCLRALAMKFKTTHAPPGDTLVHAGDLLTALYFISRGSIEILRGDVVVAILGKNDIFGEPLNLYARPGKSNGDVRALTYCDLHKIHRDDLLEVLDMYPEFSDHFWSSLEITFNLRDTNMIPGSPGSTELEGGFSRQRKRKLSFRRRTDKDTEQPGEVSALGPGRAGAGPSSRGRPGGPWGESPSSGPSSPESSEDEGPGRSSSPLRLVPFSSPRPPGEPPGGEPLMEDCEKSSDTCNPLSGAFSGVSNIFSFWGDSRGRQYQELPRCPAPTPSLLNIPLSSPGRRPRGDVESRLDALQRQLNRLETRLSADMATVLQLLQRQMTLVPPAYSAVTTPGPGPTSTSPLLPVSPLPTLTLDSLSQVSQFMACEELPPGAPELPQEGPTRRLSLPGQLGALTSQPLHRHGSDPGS
row,Compound,"hERG current change (%, negative = inhibition) at 1uM"
1,O=Cc1cn[nH]c1-c1cccc([N+](=O)[O-])c1,3.95%
2,O=C(Cc1cccs1)N1CCN=C1SCc1cccc(F)c1,11.1%
3,CC(=O)Nc1ccc(NC(=O)CSCc2ccccc2Cl)cc1,11.1%
4,CC(C)N1CCN(c2ccncc2S(=O)(=O)N2CCOCC2)CC1,16.8%
5,CC(C)CC(NS(=O)(=O)c1ccc2c(c1)oc(=O)n2C)C(=O)NC1CCCc2ccccc21 (stereo not shown),13.9%
6,OCCN(Cc1ccccc1)Cc1ccccc1F,-7.32%
7,CCOc1cc(/C=C2\SC(=S)N(NC(=O)c3cccnc3)C2=O)ccc1O,19.6%
8,CCc1ccc(OCc2ccc(C(=O)NCc3ccccn3)o2)cc1,-11.2%
9,CCC1SC2=NC(C)=C(C(=O)OC)C(c3cccs3)N2C1=O (stereo not shown),7.32%
10,NS(=O)(=O)c1ccc(NC(=O)COC(=O)c2cc([N+](=O)[O-])ccc2Cl)cc1,9.69%
11,COCCNC(=O)/C(C#N)=C/c1c(N2CC(C)OC(C)C2)nc2ccccn2c1=O (stereo not shown),8.79%
12,CCOc1ccccc1-n1c(SCC(=O)NC)nnc1-c1ccco1,5.55%
13,CN(c1ccc(F)cc1)S(=O)(=O)c1ccc(Cl)c(C(=O)OCC(=O)NCc2ccco2)c1,13.6%
14,O=C(Nc1nc(-c2ccc3ccccc3c2)cs1)C1CCN(S(=O)(=O)c2cccs2)CC1,9.97%
15,CCOC(=O)c1sc(=S)n(-c2ccc(Cl)cc2)c1SC,-7.5%
16,CCOc1ccc(OCC)c(NC(=O)CSc2nnc(Cn3cnc4ccccc43)n2C)c1,-6.7%
17,CNC(=O)c1cc2ccc(OC)cc2oc1=O,3.22%
18,Cc1cccc(C)c1NC(=S)N/N=C/c1c(Cl)cccc1Cl,9.01%
19,O=C(O)/C=C\C(=O)Nc1cccc(C(=O)Nc2cccc(O)c2)c1,8.09%
20,O=C(Oc1cccc(/C=N/Nc2nc(N3CCOCC3)nc(N3CCOCC3)n2)c1)c1ccco1,2.17%
21,Cc1ccc(CN2C(=O)CCC2C(=O)NCc2ccc(F)cc2)cc1 (stereo not shown),2.33%
22,C/C(O)=c1/cnc2nc3ccccc3n2c1=O,11%
23,Cc1ccnc2nc(C(=O)NC3CCCc4ccccc43)nn12 (stereo not shown),11.4%
24,CCOC(=O)C1(Cc2cccc(OC)c2)CCN(Cc2cccc(O)c2)CC1,-9.46%
25,CC(C)NC(=O)CN1C(=O)C(C)(C)Oc2ccc(C(=O)NC3CCCCC3)cc21,13.2%
26,CCOCCCNc1nc2c(-c3ccccc3)nnn2c2ccccc12,19.9%
27,O=C(COC(=O)/C=C/c1cccc(Br)c1)Nc1cccc(S(=O)(=O)NC2=NCCC2)c1,4.13%
28,Cc1cccc(-n2ncc3c2CCCC3NC(=O)Cn2cccn2)c1C (stereo not shown),6.35%

row,Compound,"hERG current change (%, negative = inhibition) at 1uM"
1,COc1ccc([N+](=O)[O-])cc1NC(=O)C(C)OC(=O)C1CC(=O)N(Cc2ccco2)C1 (stereo not shown),-6.39%
2,CC1CCCCN1C(=O)c1cc(-c2ccc(Cl)c(Cl)c2)on1 (stereo not shown),-17%
3,Cc1nc(-c2nnc(SCC(=O)Nc3cc(C(F)(F)F)cc(C(F)(F)F)c3)n2C)cs1,16%
4,O=c1c2ccccc2nnn1CSc1nc2cc(Cl)ccc2c(=O)n1Cc1ccco1,-4.83%
5,O=C(Cn1cnc2c(cnn2-c2ccccc2Cl)c1=O)N1CCc2ccccc21,6.63%
6,Cc1cc(C)c(S(=O)(=O)Nc2nnc(CC(C)C)s2)c(C)c1,14.5%
7,Cc1noc(C)c1CSc1ncnc2sc(C)c(C)c12,10.1%
8,Cc1ccc(SCCN2CCC(O)CCC2=O)cc1 (stereo not shown),12.9%
9,CCOC(=O)C1CCCN(C(=O)c2ccc(Cl)c(S(=O)(=O)N3CCCCC3)c2)C1 (stereo not shown),4.49%
10,O=C(O)CCN(CC(=O)c1ccc(Cl)cc1)S(=O)(=O)c1ccc([N+](=O)[O-])cc1,-5.86%
11,C=CCn1c(SCc2ccc(Br)cc2F)nc2cc(C(=O)O)ccc2c1=O,20.6%
12,CCOc1ccc(S(=O)(=O)NC(C)C(=O)NCc2ccccn2)cc1 (stereo not shown),14.4%
13,CC1CC(C)CN(C(=O)CSc2nc3ccsc3c(=O)n2Cc2ccccn2)C1 (stereo not shown),-1.17%
14,O=c1cc(C(F)(F)F)[nH]c2ccccc12,8.61%
15,Cc1ccc(S(=O)(=O)NC(=O)Nc2cc(C)no2)cc1,7.78%
16,COc1cc(OC)cc(-c2nc3nc(C)c(CCC(=O)NCC(OC)OC)c(C)n3n2)c1,5.9%
17,O=C(CN(Cc1ccco1)C(=O)CNS(=O)(=O)c1ccc(F)cc1)NCc1ccco1,-2.72%
18,Cc1ccc(C)c(Cn2nnc3c(=O)[nH]c(C(=O)Nc4ccc(F)cc4)nc32)c1,3.15%
19,CN(C(=O)CSc1nnc(-c2ccccc2F)n1N)C1CCCCC1,6.18%
20,Cc1cc(=O)[nH]c2ccc(S(=O)(=O)NC3CCCCC3)cc12,7.42%
21,CCC(=O)Oc1ccc(C(=O)Nc2cccc(C(=O)NCC(C)C)c2)cc1,7.7%
22,OC(COCC(F)(F)C(F)(F)C(F)(F)C(F)F)Cn1c2ccc(Cl)cc2c2cc(Cl)ccc21 (stereo not shown),3.78%
23,CC12CCC(=O)N1C(C(=O)Nc1cc(C(F)(F)F)ccc1N1CCOCC1)CS2 (stereo not shown),10.5%
24,COc1c2ccoc2c(OC[C@@H](O)C(C)(C)O)c2oc(=O)ccc12,5.59%
25,Cn1c(CNC(=O)Nc2cccc(Cl)c2)nnc1SCc1ccccc1,0.6%
26,O=C(CN1CCC(C(=O)c2ccc3c(c2)OCCO3)CC1)NC1CCCC1,11.1%
27,Clc1nccc(N2CCN(c3ccccc3Cl)CC2)n1,4.84%
